# The list shows a part of the results.
# B1: PhoQ; a variant is named by its letters at X, in order, P23837 (parent)
# chain: MKKLLRLFFPLSLRVRFLLATAAVVLVLSLAYGMVALIGYSVSFDKTTFRLLRGESNLFYTLAKWENNKLHVELPENIDKQSPTMTLIYDENGQLLWAQRDVPWLMKMIQPDWLKSNGFHEIEADVNDTSLLLSGDHSIQQQLQEVREDDDDAEMTHSVAVNVYPATSRMPKLTIVVVDTIPVELKSSYMVWSWFIYVLSANLLLVIPLLWVAAWWSLRPIEALAKEVRELEEHNRELLNPATTRELTSLVRNLNRLLKSERERYDKYRTTLTDLTHSLKTPLXXLQXXLRSLRSEKMSVSDAEPVMLEQISRISQQIGYYLHRASMRGGTLLSRELHPVAPLLDNLTSALNKVYQRKGVNISLDISPEISFVGEQNDFVEVMGNVLDNACKYCLEFVEISARQTDEHLYIVVEDDGPGIPLSKREVIFDRGQRVDTLRPGQGVGLAVAREITEQYEGKIVAGESMLGGARMEVIFGRQHSAPKDE
# Variants of: B1
# Test: enrichment ratio after two sorts for PhoP signalling (ratio (wild type AVST 3.29)); higher = more functional
# Conditions: with PhoP (E. coli)
row,Variant,enrichment ratio
1,DHNY,≤ 0.25
2,HSAI,≤ 0.25
3,FQRQ,≤ 0.25
4,TCTA,11.4
5,EQRI,≤ 0.25
6,SQYF,0.646
7,HLVK,≤ 0.25
8,TVLT,0.749
9,ELFE,≤ 0.25
10,GYKQ,≤ 0.25
11,MGDA,≤ 0.25
12,RYYQ,≤ 0.25
13,FPMP,≤ 0.25
14,VNGN,≤ 0.25
15,ETLL,2.25
16,PRLA,≤ 0.25
17,MHIK,≤ 0.25
18,SKFY,≤ 0.25
19,SMMK,5.2
20,WFYI,≤ 0.25
21,AQRL,≤ 0.25
22,LIPT,≤ 0.25
23,WEFP,≤ 0.25
24,KPNF,≤ 0.25
25,IWNG,≤ 0.25
26,YAEL,≤ 0.25

row,Variant,enrichment ratio
1,PTKK,≤ 0.25
2,WIKI,≤ 0.25
3,VDFP,≤ 0.25
4,SDMI,3.86
5,SWVQ,≤ 0.25
6,IPET,≤ 0.25
7,STCY,8.93
8,MLLQ,≤ 0.25
9,LFWE,≤ 0.25
10,PPFC,≤ 0.25
11,LIKL,≤ 0.25
12,PGFH,≤ 0.25
13,APTG,≤ 0.25
14,YNGY,≤ 0.25
15,SISH,10.5
16,PTRF,≤ 0.25
17,MKYC,≤ 0.25
18,EVAN,≤ 0.25
19,VKSM,≤ 0.25
20,FIGR,≤ 0.25
21,HYTA,≤ 0.25
22,PHHY,≤ 0.25
23,LLLE,≤ 0.25
24,WQWW,≤ 0.25
25,PLQG,≤ 0.25
26,KLCD,≤ 0.25

row,Variant,enrichment ratio
1,LDTF,≤ 0.25
2,HYST,≤ 0.25
3,SSRW,≤ 0.25
4,NTAF,≤ 0.25
5,FDGK,≤ 0.25
6,NEFK,≤ 0.25
7,TKCG,6.42
8,LLLI,≤ 0.25
9,LQKT,≤ 0.25
10,TMTC,13.5
11,MSHP,≤ 0.25
12,HYIH,≤ 0.25
13,FRKI,≤ 0.25
14,RIFA,≤ 0.25
15,NYAY,≤ 0.25
16,LDRS,≤ 0.25
17,RMPH,≤ 0.25
18,HVDP,≤ 0.25
19,LTPD,≤ 0.25
20,PFFC,≤ 0.25
21,LDRG,≤ 0.25
22,LQAC,≤ 0.25
23,HWVK,≤ 0.25
24,DKPM,≤ 0.25
25,VGVE,≤ 0.25
26,CSVY,≤ 0.25

row,Variant,enrichment ratio
1,QMIF,≤ 0.25
2,PWHM,≤ 0.25
3,MDYV,≤ 0.25
4,TCDK,≤ 0.25
5,HKRA,≤ 0.25
6,YLVR,≤ 0.25
7,PPNG,≤ 0.25
8,PEPM,≤ 0.25
9,DCRH,≤ 0.25
10,LALF,≤ 0.25
11,DHNT,≤ 0.25
12,FTTF,≤ 0.25
13,QCHK,≤ 0.25
14,RFRV,≤ 0.25
15,SFAY,≤ 0.25
16,AASR,≤ 0.25
17,YTTD,≤ 0.25
18,RWHR,≤ 0.25
19,QWNT,≤ 0.25
20,HYWR,≤ 0.25
21,KLLA,≤ 0.25
22,SPMM,≤ 0.25
23,VIQQ,≤ 0.25
24,NAVL,≤ 0.25
25,IFAV,≤ 0.25
26,LHKF,≤ 0.25

row,Variant,enrichment ratio
1,LNGG,≤ 0.25
2,LFVI,≤ 0.25
3,RESV,≤ 0.25
4,LNVD,≤ 0.25
5,SPCA,≤ 0.25
6,FKMC,≤ 0.25
7,ELAW,≤ 0.25
8,SFQA,≤ 0.25
9,WLRK,≤ 0.25
10,QCMR,≤ 0.25
11,DRAH,≤ 0.25
12,KYSA,≤ 0.25
13,TLQE,11.7
14,HPCA,≤ 0.25
15,FAYC,≤ 0.25
16,FGSL,≤ 0.25
17,ASFD,≤ 0.25
18,KYRV,≤ 0.25
19,KSAE,≤ 0.25
20,WAPA,≤ 0.25
21,VRDI,≤ 0.25
22,EMQG,≤ 0.25
23,MTDR,≤ 0.25
24,NHID,≤ 0.25
25,GHGC,≤ 0.25
26,RDHG,≤ 0.25

row,Variant,enrichment ratio
1,SYLG,9.61
2,VKEG,≤ 0.25
3,LIIM,≤ 0.25
4,IGAR,≤ 0.25
5,YHCG,≤ 0.25
6,QKYH,3.42
7,FERI,≤ 0.25
8,IYIK,≤ 0.25
9,FNWL,≤ 0.25
10,SRCI,3.77
11,KSPY,≤ 0.25
12,GFPP,≤ 0.25
13,ADAK,≤ 0.25
14,DDDF,≤ 0.25
15,CTTR,≤ 0.25
16,QVMF,≤ 0.25
17,MTPS,≤ 0.25
18,QDTL,≤ 0.25
19,HHLM,≤ 0.25
20,MIGI,4.29
21,GYDV,≤ 0.25
22,FMFM,≤ 0.25
23,QAKE,≤ 0.25

# Source: a collection of fitness landscapes (doi:10.1126/science.1257360)
